Assay results taken from US20160089386A1, “TREATING AND PREVENTING DISEASE WITH TMA AND TMAO LOWERING AGENTS” (The Cleveland Clinic Foundation, priority 2014, published 2016).

Legend:
[1] = tested on: in vivo thrombosis potential; assay: Carotid artery FeCl exposure in vivo thrombosis model; parameters: species or system mice
[2] = for renal parenchymal fibrosis: dietary exposure of either choline or TMAO in mice; for serum cystatin C levels: feeding extended to 16 weeks, compared to chow-fed mice; for kidney injury marker-1 (KIM-1) / phosphorylation of Smad3: mouse kidneys; for kidney injury marker-1 (KIM-1): 6 weeks diet (choline 1.0% or TMAO 0.12%), vs chow; for phosphorylation of Smad3: brief exposure (6 weeks) to high choline or TMAO supplemented diet
[3] = Plasma TMAO in mice on chow or choline diet with or without ASA in drinking water; assay type: in vivo; settings: for TMAO monitored in plasma: ASA 4 mg/Kg BW in drinking water, 2 weeks
[4] = tested on: microbial TMA lyase; assay: TMA lyase activity of Proteus mirabilis (PM) lysate; assay type: biochemical; settings: for TMA production from substrate: PM lysate, physiological range of ASA
Description: Using PM lysate (PM that is lysed in a French press to break open the cell wall and release enzyme contents) as the enzyme source, the TMA lyase activity (TMA producing activity) was examined in incubations with either d9(trimethyl)choline as substrate, or […] (GPC) as substrate. […] A further examination of the impact of ASA on TMA lyase activity by PM lysate was undertaken. Three mg of PM lysate was incubated with 25 uM choline and 25 uM choline(d9) in 2 ml PBS at 37 C for 20 hours. In FIG. 7, the dotted lines at 81 mg and 320 mg ASA represent reported steady state plasma levels of aspirin reported at those doses in human subjects. […] In light of this, in some embodiments, enteric coated aspirin or aspirin derivatives that have delayed absorption may be employed to treat disease since they would dissolve in the intestines past the stomach, such that the level of ASA or derivative delivered to the gut lumen will be higher. There exist even longer delayed release formulations of medications that could also be used.

[5] = Plasma TMAO in human volunteers on choline supplementation, before and on chronic aspirin; assay type: in vivo; settings: omnivores, ASA 81 mg daily for a month, then daily choline supplementation
Description: (§1) In further works, human volunteer subject were enrolled in the following study. Individuals were examined at baseline for plasma TMAO and blood drawn for platelet aggregometry studies with submaximal ADP stimulation. Subjects were examined both naïve to aspirin, and then at different time after taking chronic aspirin (81 mg daily) for at least a month. […] After washout period of at least 4 months with no choline supplement, subjects were placed on ASA daily (81 mg) and after a month of ASA, the baseline TMAO level and platelet aggregmetry measure monitored. Then, choline supplementation daily was again resumed.
(§2) Choline supplement was used in subjects (choline bitartrate, 2×500 mg/day=choline 2×205.7 mg/day), for 2 month period. Samples were collected at baseline and monthly blood were draw (1,2 months). Plasma levels of TMAO were measured and platelet aggregation in response to 5 uM ADP were measured.

[6] = tested on: platelet aggregation; assay: Platelet aggregometry with submaximal ADP stimulation in human volunteers
Description: as §1, §2

## C[N+](C)(C)CCO [choline]
[1]; choline diet alone, p<0.0001
  time to blood flow cessation: reduces the time to blood flow cessation
[2]
  renal parenchymal fibrosis: development of renal parenchymal fibrosis
  serum cystatin C levels: increased
  kidney injury marker-1 (KIM-1): increased
  phosphorylation of Smad3: enhanced phosphorylation

## CC(=O)Oc1ccccc1C(=O)O [ASA, acetylsalicylic acid]
[3]; choline diet (0.5 gm %)
  TMAO monitored in plasma: 19.7 µM
[3]; chow diet
  TMAO monitored in plasma: 4.5 µM
[3]; in both diets (chow and choline), p<0.05 in each diet
  reduction in TMAO level on addition of ASA: approx. 2 fold
[1]; ASA added to the choline diet
  prothrombotic phenotype: attenuates the extent of prothrombotic phenotype
[1]; choline diet+ASA group relative to control (chow and no ASA)
  time to blood flow cessation: no difference
[4]; PM lysate 3 mg, 25 uM choline + 25 uM choline(d9), 37 C, 20 hours, at plasma ASA levels anticipated for 320 mg dose
  TMA lyase inhibition: approximately 40%
[4]; d9(trimethyl) GPC as substrate
  TMA production from substrate: inhibited TMA production
[4]; d9(trimethyl)choline as substrate
  TMA production from substrate: inhibited TMA production
[5]
  rise in TMAO on choline diet: blunted
[6]; omnivores, ASA 81 mg daily for a month, then daily choline supplementation
  rise in platelet aggregation on choline diet: blunted

## C[N+](C)(C)[O-] [TMAO, trimethylamine N-oxide]
[2]
  renal parenchymal fibrosis: development of renal parenchymal fibrosis
  serum cystatin C levels: increased
  kidney injury marker-1 (KIM-1): increased
  phosphorylation of Smad3: enhanced phosphorylation

## C[N+](C)(C)CCO.O=C([O-])C(O)C(O)C(=O)O (centres unmarked) [choline bitartrate]
[6]; vegans, choline bitartrate 2x500 mg/day, 2 months
  platelet aggregation in response to 5 uM ADP: significant increase in platelet hyperresponsiveness
